Data: patent US20250084180A1 (MIE UNIVERSITY, published 2025)

T1: CD19 (human, UniProt P15391 20-556)
T1 sequence (looked up): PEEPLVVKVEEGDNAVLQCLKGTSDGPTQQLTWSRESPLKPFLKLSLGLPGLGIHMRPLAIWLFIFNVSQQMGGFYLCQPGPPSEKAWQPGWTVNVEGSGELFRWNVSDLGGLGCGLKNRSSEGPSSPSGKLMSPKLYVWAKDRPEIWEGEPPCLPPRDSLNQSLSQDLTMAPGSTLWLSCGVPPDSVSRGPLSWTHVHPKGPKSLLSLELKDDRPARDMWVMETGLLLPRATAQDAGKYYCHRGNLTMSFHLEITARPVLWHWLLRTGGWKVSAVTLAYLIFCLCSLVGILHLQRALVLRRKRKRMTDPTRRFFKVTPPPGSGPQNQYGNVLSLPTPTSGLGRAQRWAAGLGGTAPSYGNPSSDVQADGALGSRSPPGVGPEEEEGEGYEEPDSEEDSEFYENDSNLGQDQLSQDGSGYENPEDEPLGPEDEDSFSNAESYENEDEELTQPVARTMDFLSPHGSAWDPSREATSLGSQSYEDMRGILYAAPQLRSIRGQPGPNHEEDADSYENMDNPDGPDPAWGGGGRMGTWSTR


Experiments:
Assay in all cases: cell-based or functional assay
CD19 [1] = target: T1, CD19
CD19 [2] = target: T1, CD19; remark: listed apart in the source
[3] = target: complex of a MAGE-A4 derived peptide and HLA-A2 (human)
[4] = target: complex of a MAGE-A4 derived peptide and HLA-A2 (human); remark: listed apart in the source

Row | Binder | Cell lysis (%), CAR-T cells on Nalm-6, Effecter:Target = 1:1 (CD19 [1]) | Ratio of Cell lysis to CD19-28z (1.00), Nalm-6, Effecter:Target = 1:1 (CD19 [1]) | Cell lysis (%), CAR-T cells on Nalm-6, Effecter:Target = 3:1 (CD19 [2]) | Ratio of Cell lysis to CD19-28z (1.00), Nalm-6, Effecter:Target = 3:1 (CD19 [2]) | Cell lysis (%), CAR-T cells on SK-MEL-37, Effecter:Target = 3:1 [3] | Ratio of Cell lysis to MAGE-A4-zG (1.00), SK-MEL-37, Effecter:Target = 3:1 [3] | Cell lysis (%), CAR-T cells on SK-MEL-37, Effecter:Target = 10:1 [4] | Ratio of Cell lysis to MAGE-A4-zG (1.00), SK-MEL-37, Effecter:Target = 10:1 [4]
1 | CD19-28z-Dm8 (other) DIQMTQTTSSLSASLGDRVTISCRASQDISKYLNWYQQKPDGTVKLLIYHTSRLHSGVPDRFDGDGSGTDYSLTISNLEQEDIATYFCQQGNTLPYTFGGGTKLEITGGGGSGGGGSGGGGSEVKLQESGPGLVAPSQSLSVTCTVSGVSLPDYGVSWIRQPPRKGLEWLGVIWGSETTYYNSALKSRLTIIKDNSKSQVFLKMNSLQTDDTAIYYCAKHYYYGGSYAMDYWGQGTSVTVSSIEVMYPPPYLDNEKSNGTIIHVKGKHLCPSPLFPGPSKPFWVLVVVGGVLACYSLLVTVAFIIFWVRSKRSRLLHSDYMNMTPRRPGPTRKHYQPYAPPRDFAAYRSL[not shown - about 120 residues] | 26% | 1.24 ratio | 60% | 1.2 ratio | – | – | – | –
2 | CD19-28z-Dm11 (other) DIQMTQTTSSLSASLGDRVTISCRASQDISKYLNWYQQKPDGTVKLLIYHTSRLHSGVPSRFDGSGDGTDYDLTISNLEQEDIATYFCQQGNTLPYTFGGGTKLEITGGGGSGGGGSGGGGSEVKLQESGPGLVAPSQSLSVTCTVSGVSLPDYGVSWIRQPPRKGLEWLGVIWGSETTYYNSALKSRLTIIKDNSKSQVFLKMNSLQTDDTAIYYCAKHYYYGGSYAMDYWGQGTSVTVSSIEVMYPPPYLDNEKSNGTIIHVKGKHLCPSPLFPGPSKPFWVLVVVGGVLACYSLLVTVAFIIFWVRSKRSRLLHSDYMNMTPRRPGPTRKHYQPYAPPRDFAAYRSL[not shown - about 120 residues] | 49% | 2.33 ratio | 81% | 1.62 ratio | – | – | – | –
3 | CD19-28z-Em9 (other) DIQMTQTTSSLSASLGDRVTISCRASQDISKYLNWYQQKPDGTVKLLIYHTSRLHSGVPSRFSGSGSGTEYELEISNLEQEDIATYFCQQGNTLPYTFGGGTKLEITGGGGSGGGGSGGGGSEVKLQESGPGLVAPSQSLSVTCTVSGVSLPDYGVSWIRQPPRKGLEWLGVIWGSETTYYNSALKSRLTIIKDNSKSQVFLKMNSLQTDDTAIYYCAKHYYYGGSYAMDYWGQGTSVTVSSIEVMYPPPYLDNEKSNGTIIHVKGKHLCPSPLFPGPSKPFWVLVVVGGVLACYSLLVTVAFIIFWVRSKRSRLLHSDYMNMTPRRPGPTRKHYQPYAPPRDFAAYRSL[not shown - about 120 residues] | 39% | 1.86 ratio | 94% | 1.88 ratio | – | – | – | –
4 | CD19-28z-Dm10 (other) DIQMTQTTSSLSASLGDRVTISCRASQDISKYLNWYQQKPDGTVKLLIYHTSRLHSGVPSRFDGDGSGTDYDLTISNLEQEDIATYFCQQGNTLPYTFGGGTKLEITGGGGSGGGGSGGGGSEVKLQESGPGLVAPSQSLSVTCTVSGVSLPDYGVSWIRQPPRKGLEWLGVIWGSETTYYNSALKSRLTIIKDNSKSQVFLKMNSLQTDDTAIYYCAKHYYYGGSYAMDYWGQGTSVTVSSIEVMYPPPYLDNEKSNGTIIHVKGKHLCPSPLFPGPSKPFWVLVVVGGVLACYSLLVTVAFIIFWVRSKRSRLLHSDYMNMTPRRPGPTRKHYQPYAPPRDFAAYRSL[not shown - about 120 residues] | 50% | 2.38 ratio | 98% | 1.96 ratio | – | – | – | –
5 | CD19-28z-Dm12 (other) DIQMTQTTSSLSASLGDRVTISCRASQDISKYLNWYQQKPDGTVKLLIYHTSRLHSGVPSRFDGDGDGTDYDLTISNLEQEDIATYFCQQGNTLPYTFGGGTKLEITGGGGSGGGGSGGGGSEVKLQESGPGLVAPSQSLSVTCTVSGVSLPDYGVSWIRQPPRKGLEWLGVIWGSETTYYNSALKSRLTIIKDNSKSQVFLKMNSLQTDDTAIYYCAKHYYYGGSYAMDYWGQGTSVTVSSIEVMYPPPYLDNEKSNGTIIHVKGKHLCPSPLFPGPSKPFWVLVVVGGVLACYSLLVTVAFIIFWVRSKRSRLLHSDYMNMTPRRPGPTRKHYQPYAPPRDFAAYRSL[not shown - about 120 residues] | 47% | 2.24 ratio | 75% | 1.5 ratio | – | – | – | –
6 | CD19-28z-Em13 (other) DIQMTQTTSSLSASLGDRVTISCRASQDISKYLNWYQQKPDGTVKLLIYHTSRLHSGVPSRFEGEGEGTEYELTISNLEQEDIATYFCQQGNTLPYTFGGGTKLEITGGGGSGGGGSGGGGSEVKLQESGPGLVAPSQSLSVTCTVSGVSLPDYGVSWIRQPPRKGLEWLGVIWGSETTYYNSALKSRLTIIKDNSKSQVFLKMNSLQTDDTAIYYCAKHYYYGGSYAMDYWGQGTSVTVSSIEVMYPPPYLDNEKSNGTIIHVKGKHLCPSPLFPGPSKPFWVLVVVGGVLACYSLLVTVAFIIFWVRSKRSRLLHSDYMNMTPRRPGPTRKHYQPYAPPRDFAAYRSL[not shown - about 120 residues] | 32% | 1.52 ratio | 68% | 1.36 ratio | – | – | – | –

Now from value to binder:

Row | Cell lysis (%), CAR-T cells on Nalm-6, Effecter:Target = 1:1 (CD19 [1]) | Ratio of Cell lysis to CD19-28z (1.00), Nalm-6, Effecter:Target = 1:1 (CD19 [1]) | Cell lysis (%), CAR-T cells on Nalm-6, Effecter:Target = 3:1 (CD19 [2]) | Ratio of Cell lysis to CD19-28z (1.00), Nalm-6, Effecter:Target = 3:1 (CD19 [2]) | Cell lysis (%), CAR-T cells on SK-MEL-37, Effecter:Target = 3:1 [3] | Ratio of Cell lysis to MAGE-A4-zG (1.00), SK-MEL-37, Effecter:Target = 3:1 [3] | Cell lysis (%), CAR-T cells on SK-MEL-37, Effecter:Target = 10:1 [4] | Ratio of Cell lysis to MAGE-A4-zG (1.00), SK-MEL-37, Effecter:Target = 10:1 [4] | Binder
7 | – | – | – | – | 33% | 2.54 ratio | 44% | 1.35 ratio | MAGE-A4-zG-Em1 (other) QVQLQVQLVQSGAEVKKPGSSVKVSCKASGGTFSSYAISWVRQAPGQGLEWMGGIIPIFGTANYAQKFQGRVTITADKSTSTAYMELSSLRSEDTAVYYCARSPRRAYHDAFDIWGQGTMVTVSSGGGGSGGGGSGGGGSSYELTQPPSMSVAPGKTASITCGGDHIGSKSVHWYQQKPGQAPVLVVYDDSDRPSGIPERFEGENEGNEATLTISGTQAMDEADYYCLAWDSSTAIFGGGTQLTVLVGQPKANPTVTLFPPSSEELQANKATLVCLISDFYPGAVTVAWKADGSPVKAGVETTKPSKQSNNKYAASSYLSLTPEQWKSHRSYSCQVTHEGSTVEKTVAPTECSARQTRFWVLVVVGGVLACYSLLVTVAFIIFWVRL[not shown - about 120 residues]RSQCMWPRETQLLLEVPPSTEDARSCQFPEEERGERSAEEKGRLGDLWV
8 | – | – | – | – | 24% | 1.85 ratio | 51% | 1.54 ratio | MAGE-A4-zG-Em3 (other) QVQLQVQLVQSGAEVKKPGSSVKVSCKASGGTFSSYAISWVRQAPGQGLEWMGGIIPIFGTANYAQKFQGRVTITADKSTSTAYMELSSLRSEDTAVYYCARSPRRAYHDAFDIWGQGTMVTVSSGGGGSGGGGSGGGGSSYELTQPPSMSVAPGKTASITCGGDHIGSKSVHWYQQKPGQAPVLVVYDDSDRPSGIPERFSGENEGNEAELTISGTQAMDEADYYCLAWDSSTAIFGGGTQLTVLVGQPKANPTVTLFPPSSEELQANKATLVCLISDFYPGAVTVAWKADGSPVKAGVETTKPSKQSNNKYAASSYLSLTPEQWKSHRSYSCQVTHEGSTVEKTVAPTECSARQTRFWVLVVVGGVLACYSLLVTVAFIIFWVRL[not shown - about 120 residues]RSQCMWPRETQLLLEVPPSTEDARSCQFPEEERGERSAEEKGRLGDLWV
9 | – | – | – | – | 30% | 2.31 ratio | 52% | 1.56 ratio | MAGE-A4-zG-Em2 (other) QVQLQVQLVQSGAEVKKPGSSVKVSCKASGGTFSSYAISWVRQAPGQGLEWMGGIIPIFGTANYAQKFQGRVTITADKSTSTAYMELSSLRSEDTAVYYCARSPRRAYHDAFDIWGQGTMVTVSSGGGGSGGGGSGGGGSSYELTQPPSMSVAPGKTASITCGGDHIGSKSVHWYQQKPGQAPVLVVYDDSDRPSGIPERFEGENEGNTAELTISGTQAMDEADYYCLAWDSSTAIFGGGTQLTVLVGQPKANPTVTLFPPSSEELQANKATLVCLISDFYPGAVTVAWKADGSPVKAGVETTKPSKQSNNKYAASSYLSLTPEQWKSHRSYSCQVTHEGSTVEKTVAPTECSARQTRFWVLVVVGGVLACYSLLVTVAFIIFWVRL[not shown - about 120 residues]RSQCMWPRETQLLLEVPPSTEDARSCQFPEEERGERSAEEKGRLGDLWV
